Target: the molecule itself
Assay: SEC

B1: Recombinant His-Tagged TfR (soluble human transferrin receptor 1) (receptor)
chain: not shown
Question: With B1 as the protein, how does the “stoichiometry N” value read?
Answer: Its value is 2.

From PMC3672314 (Metallomics : integrated biometal science, 2013)
